Among all 310,000 compounds or so, about 14,000 (4.5%) showed an effect of 50% or more. The effect is printed as a negative number. The list shows a part of the results.
These compounds were tested against human ether-à-go-go-related gene (hERG) potassium channel (human, UniProt Q12809) (assay: primary screen, population patch clamp on CHO cells stably expressing hERG).
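Note: peak tail current of the secondary pulse compared with the same well before compound.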

human ether-à-go-go-related gene (hERG) potassium channel, sequence (Q12809 whole entry, looked up): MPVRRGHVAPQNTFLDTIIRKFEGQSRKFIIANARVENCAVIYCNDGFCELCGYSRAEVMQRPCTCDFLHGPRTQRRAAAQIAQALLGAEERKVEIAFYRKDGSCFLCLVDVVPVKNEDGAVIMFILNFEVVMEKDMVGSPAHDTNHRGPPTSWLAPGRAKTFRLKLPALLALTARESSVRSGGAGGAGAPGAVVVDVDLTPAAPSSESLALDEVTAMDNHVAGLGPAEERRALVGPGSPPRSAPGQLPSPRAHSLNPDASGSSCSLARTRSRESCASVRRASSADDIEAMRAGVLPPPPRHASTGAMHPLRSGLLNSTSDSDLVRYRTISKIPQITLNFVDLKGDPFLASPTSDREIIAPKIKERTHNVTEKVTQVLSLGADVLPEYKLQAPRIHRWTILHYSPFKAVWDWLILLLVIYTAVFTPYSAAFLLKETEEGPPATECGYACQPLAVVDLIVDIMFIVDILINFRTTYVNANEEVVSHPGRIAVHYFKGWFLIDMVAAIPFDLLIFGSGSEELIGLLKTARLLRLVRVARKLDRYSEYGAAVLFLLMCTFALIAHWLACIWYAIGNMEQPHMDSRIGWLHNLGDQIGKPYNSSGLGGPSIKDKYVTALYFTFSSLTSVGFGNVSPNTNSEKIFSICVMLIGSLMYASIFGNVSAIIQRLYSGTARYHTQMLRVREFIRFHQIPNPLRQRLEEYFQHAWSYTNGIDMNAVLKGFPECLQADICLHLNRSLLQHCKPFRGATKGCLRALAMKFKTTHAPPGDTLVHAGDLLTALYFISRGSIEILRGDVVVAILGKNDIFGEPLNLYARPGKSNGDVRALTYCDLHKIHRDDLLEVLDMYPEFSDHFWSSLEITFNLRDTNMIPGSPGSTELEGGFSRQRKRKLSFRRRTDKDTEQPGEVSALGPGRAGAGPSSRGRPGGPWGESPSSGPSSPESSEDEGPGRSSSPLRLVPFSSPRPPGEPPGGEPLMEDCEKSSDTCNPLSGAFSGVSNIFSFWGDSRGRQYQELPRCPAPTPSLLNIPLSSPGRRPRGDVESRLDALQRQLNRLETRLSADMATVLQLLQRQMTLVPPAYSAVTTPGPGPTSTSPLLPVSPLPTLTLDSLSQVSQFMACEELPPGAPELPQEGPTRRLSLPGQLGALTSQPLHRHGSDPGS

SMILES | hERG current change (%, negative = inhibition) at 10uM [%]
Cc1sc2nc(CSc3nc4ccccc4c(=O)n3CCCN3CCOCC3)[nH]c(=O)c2c1C | -31.9
O=C(COC(=O)Cc1ccc(Br)cc1)NCC1CCCCC1 | 14.7
O=C(CN1CC(=O)Oc2ccccc21)OCC(=O)c1cccc(Br)c1 | 16.7
CCN(CC)S(=O)(=O)c1ccc(N2CCOCC2)c(NC(=O)c2cccc3ccccc23)c1 | 7.99
CCOC(=O)/C(C#N)=C/c1ccc(OCC(=O)Nc2ccc(OC)cc2)c(OC)c1 | 19.2
C=CCSc1nnc(-c2ccc(Cl)cc2Cl)o1 | -20.4
Cc1ccc(C)c(NC(=O)C(OC(=O)c2ccc(NC(=O)CC#N)cc2)c2ccccc2)c1 (centres unmarked) | 0.752
N#C/C(=C\c1ccccc1)C(=O)N1CCC(C(N)=O)CC1 | 15.6
COC(=O)c1ccc(C2C3=C(Nc4nnnn42)c2ccccc2OC3)cc1 (centres unmarked) | -0.518
CCOC(=O)C1CCN(C(=O)CN2C(=O)c3ccccc3S2(=O)=O)CC1 | 6.4
O=C1NC(c2cccs2)Nc2sc3c(c21)CCCC3 (centres unmarked) | 6.66
NC(=O)C1CCN(C(=O)C(Cc2ccccc2)NC(=O)c2ccccc2)CC1 (centres unmarked) | 16.5
O=C(Cn1[nH]c(=O)c2ccccc2c1=O)Nc1ccc(-c2nnc3n2CCCCC3)cc1 | 13
Cc1cc(C(C)(C)C)oc1C(=O)N(CC(=O)NC1CCCC1)c1cccc(C(F)(F)F)c1 | 16.1
CC(=O)NCCCc1nc2ccccc2n1Cc1c(F)cccc1Cl | -27.6
COc1ccc(NC(=O)C2CCN(C(=O)NC3CCCCC3)CC2)c(OC)c1 | -18.4
O=[N+]([O-])c1cc(Cl)ccc1Nc1ccccc1 | 9.85
Cc1cc(C)nc(SCCS(=O)(=O)Cc2ccccc2)n1 | -1.06
C=CCCCCCCCCc1nc(SCC(=O)O)n[nH]1 | -4.13
CC(=O)Nc1ccc(-c2csc(NCc3ccccc3)n2)cc1 | 1.03
Cc1ccc(C(=O)N2CCCC(CCC(=O)N3CCN(c4ccccn4)CC3)C2)cc1C (centres unmarked) | -34.9
COc1ccccc1C(=O)Nc1ccc(Br)c2cccnc12 | 27.2

SMILES | hERG current change (%, negative = inhibition) at 10uM [%]
CCOC(=O)c1cc(NC(=O)Cc2ccc(S(=O)(=O)N3CCOCC3)s2)cc(C(=O)OCC)c1 | 3.99
O=C1OCC2=C1C(c1ccccc1)CC(=O)N2c1cccc(F)c1 (centres unmarked) | 13
COc1cccc(/C=N/Nc2nc(Nc3ccc([N+](=O)[O-])cc3)nc(N3CCCC3)n2)c1O | 13.8
CCc1ccccc1NC(=O)CN1C(=O)c2ccccc2S1(=O)=O | 17.3
COc1ccc(C(=O)COC(=O)c2cc(=O)[nH]c3ccccc23)c(OC)c1 | 8.57
C=CCn1cccc(C(=O)Nc2cc(OC)cc(OC)c2)c1=O | -2.4
Cn1c(SCC(=O)N2CCCc3ccccc32)nnc1-c1cccs1 | -26.1
CC(=O)C1C(c2ccc3ncccc3c2)NC(=O)NC1(O)C(F)(F)F (centres unmarked) | 10.9
CC(=O)Nc1cccc(NC(=O)c2ccccc2OCc2c(C)noc2C)c1 | -13.9
CN(C)S(=O)(=O)c1cccc(NC(=O)CCc2c[nH]c3ccccc23)c1 | -21.8
C=CCNC(=O)CC(=O)N/N=C/c1ccc(F)cc1 | -3.54
Cc1nc2cc(NC(=O)COc3ccc(C#N)cc3)ccc2n1-c1ccccc1 | -21.1
CO/N=C(\N)c1nonc1N | 0.407
CCCCn1c(N)c(N(CCOC)C(=O)c2c(-c3ccccc3)noc2C)c(=O)[nH]c1=O | 2.61
CCOC(=O)c1c(C)[nH]c(C(=O)CN2CC(C)OC(C)C2)c1C (centres unmarked) | -4.57
COc1ccc(-c2nnn3c2nc(NCc2ccccc2)c2ccccc23)cc1 | 12.4
COc1ccc(C(=O)NCCS(=O)(=O)N2CCC3(CC2)OCCO3)cc1 | -9.02
CN(C)S(=O)(=O)Oc1ccccc1C(=O)Nc1ccc(F)cc1F | 2.34
NC(=O)CSc1nnc(-c2cc(-c3cccs3)nc3ccccc23)o1 | 6.01
O=C(CCN1C(=O)/C(=C\c2ccccc2F)SC1=S)Nc1ccc(C(=O)O)c(O)c1 | -2.08
CCC(C)NC(=O)CC(c1ccccc1)c1cc(C)ccc1O (centres unmarked) | -5.6
COCCNC(=O)C(c1ccc(C)cc1)N(C(=O)CCC(=O)Nc1ccccn1)c1cccc(C)c1 (centres unmarked) | 3.26

From paper PMC4336329 (PLoS ONE, 2015)
